In the supplement of paper PMC10369915:
This is one part of the list. Rule as the data show it: active = 3.2 or more and inactive = the rest. Most of these values are background signal.

Key:
Assay in all cases: enrichment score (SH2-bound / input frequency) (ratio); bacterial display of known human phosphotyrosine sites (pTyr-Var adds point mutants) read by sequencing; higher = stronger binding; tyrosines were phosphorylated by kinases first
Settings in all cases: peptide library: pTyr-Var
[1] = molecular target: SHP2 C-SH2 domain E139D
[2] = molecular target: SHP2 C-SH2 domain wild-type
[3] = molecular target: SHP2 N-SH2 domain L43F
[4] = molecular target: SHP2 N-SH2 domain T42A
[5] = molecular target: SHP2 N-SH2 domain T52S
[6] = molecular target: SHP2 N-SH2 domain wild-type

Measured: enrichment score
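Also: displayed peptides selected on beads carrying the immobilized SH2 domain, with library peptides lacking any tyrosine serving as negative controls.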

B1: ALB_Y521_E525K (peptide)
chain: EVDETYVPKKF
inactive: [1] 0.605 | [2] 0.656 | [3] 0.561 | [4] 0.536 | [5] 0.587 | [6] 0.655

B2: ALDH1A1_Y119 (peptide)
chain: LYSNAYLNDLA
inactive: [1] 0.901 | [2] 0.782 | [3] 1.01 | [4] 1.45 | [5] 0.966 | [6] 0.842

B3: ALB_Y108_E106K (peptide)
chain: TLRKTYGEMAD
inactive: [1] 0.742 | [2] 0.638 | [3] 0.696 | [4] 0.55 | [5] 0.606 | [6] 0.691

B4: ALB_Y377 (peptide)
chain: RLAKTYETTLE
inactive: [1] 0.729 | [2] 0.621 | [3] 0.676 | [4] 0.665 | [5] 0.795 | [6] 0.908

B5: ALK_Y1278_Y1278S_YF (peptide)
chain: MARDISRASFF
inactive: [1] 0.719 | [2] 0.649 | [3] 0.655 | [4] 0.586 | [5] 0.678 | [6] 0.748

B6: ALB_Y394_K396E (peptide)
chain: DPHECYAEVFD
inactive: [1] 0.727 | [2] 0.751 | [3] 0.738 | [4] 0.735 | [5] 1 | [6] 0.942

B7: ALB_Y425_E420K (peptide)
chain: KQLGEYKFQNA
inactive: [1] 0.781 | [2] 0.769 | [3] 0.833 | [4] 0.596 | [5] 0.679 | [6] 0.759

B8: ALPK3_Y342_T338I (peptide)
chain: HILQLYRCREE
inactive: [1] 0.25 | [2] 0.156 | [3] 0.22 | [4] 0.277 | [5] 0.303 | [6] 0.42

B9: ALX3_Y181_YF (peptide)
chain: HFPDVYAREQL
inactive: [1] 0.98 | [2] 0.931 | [3] 0.965 | [4] 0.626 | [5] 1.04 | [6] 0.858

B10: AKT3_Y174_G171R (peptide)
chain: ASRKYYAMKIL
inactive: [1] 1.79 | [2] 1.28 | [3] 1.58 | [4] 1.23 | [5] 1.28 | [6] 1.38

B11: ANAPC4_Y469 (peptide)
chain: NRKGKYFNVER
inactive: [1] 0.326 | [2] 0.387 | [3] 0.406 | [4] 0.383 | [5] 0.45 | [6] 0.539

B12: ALB_Y174_Y174F_YF (peptide)
chain: RHPFFFAPELL
inactive: [1] 2.94 | [2] 3.05 | [3] 2.72 | [4] 2.91 | [5] 3.14 | [6] 2.65

B13: ALK_Y1282 (peptide)
chain: IYRASYYRKGG
inactive: [1] 0.273 | [2] 0.247 | [3] 0.243 | [4] 0.262 | [5] 0.302 | [6] 0.177

B14: ALDH1A3_Y497_A493P (peptide)
chain: YPLAEYTEVKT
inactive: [1] 1.14 | [2] 1.35 | [3] 0.812 | [4] 1.74 | [5] 0.97 | [6] 1.46

B15: ALK_Y1283_Y1278S (peptide)
chain: SRASYYRKGGC
inactive: [1] 0.402 | [2] 0.26 | [3] 0.289 | [4] 0.227 | [5] 0.313 | [6] 0.24

B16: ALAS2_Y199_Y199H (peptide)
chain: WCSNDHLGMSR
inactive: [1] 0.988 | [2] 0.979 | [3] 0.854 | [4] 0.811 | [5] 0.903 | [6] 0.876

B17: ALDOB_Y204_E207Q (peptide)
chain: LEHCQYVTQKV
inactive: [1] 0.688 | [2] 1.15 | [3] 0.818 | [4] 0.793 | [5] 0.62 | [6] 1.03

B18: ALPL_Y117_G120R (peptide)
chain: GTATAYLCRVK
inactive: [1] 0.729 | [2] 0.64 | [3] 0.63 | [4] 0.65 | [5] 0.646 | [6] 0.644

B19: ALK_Y1096 (peptide)
chain: DYNPNYCFAGK
inactive: [1] 0.772 | [2] 0.777 | [3] 0.606 | [4] 0.702 | [5] 0.447 | [6] 0.77

B20: ANG_Y38_K41E (peptide)
chain: FLTQHYDAEPQ
inactive: [1] 1.06 | [2] 0.837 | [3] 0.93 | [4] 0.684 | [5] 0.878 | [6] 0.843

B21: ALDH1A1_Y119_N121S (peptide)
chain: LYSNAYLSDLA
inactive: [1] 0.841 | [2] 1.16 | [3] 0.69 | [4] 0.737 | [5] 0.83 | [6] 0.866

B22: ALB_Y343 (peptide)
chain: DVCKNYAEAKD
inactive: [1] 0.869 | [2] 0.96 | [3] 0.919 | [4] 0.72 | [5] 0.853 | [6] 1

B23: ALX3_Y181_R183W (peptide)
chain: HYPDVYAWEQL
inactive: [1] 1.21 | [2] 1.02 | [3] 1.53 | [4] 1.3 | [5] 1.22 | [6] 1.06

B24: ALCAM_Y298_T301M (peptide)
chain: RSSNTYTLMDV
inactive: [1] 0.944 | [2] 0.696 | [3] 0.515 | [4] 2.45 | [5] 0.746 | [6] 0.627

B25: ALK_Y1282_Y1278S_YF (peptide)
chain: ISRASYFRKGG
inactive: [1] 0.333 | [2] 0.348 | [3] 0.24 | [4] 0.273 | [5] 0.234 | [6] 0.321

B26: ALOX5_Y446 (peptide)
chain: MKDLTYASLCF
inactive: [1] 1.06 | [2] 1.42 | [3] 2.11 | [4] 2.04 | [5] 1.55 | [6] 1.7

B27: ALB_Y172 (peptide)
chain: ARRHPYFYAPE
inactive: [1] 0.242 | [2] 0.188 | [3] 0.225 | [4] 0.324 | [5] 0.302 | [6] 0.371

B28: ALB_Y343_E345K (peptide)
chain: DVCKNYAKAKD
inactive: [1] 0.508 | [2] 0.532 | [3] 0.544 | [4] 0.485 | [5] 0.502 | [6] 0.555

B29: ALB_Y521 (peptide)
chain: EVDETYVPKEF
inactive: [1] 0.553 | [2] 0.443 | [3] 0.434 | [4] 0.489 | [5] 0.464 | [6] 0.609

B30: ALOX12_Y295_A298T (peptide)
chain: RGEKQYLATPL
inactive: [1] 0.826 | [2] 0.55 | [3] 0.54 | [4] 0.479 | [5] 0.589 | [6] 0.767

B31: ANG_Y38_K41I (peptide)
chain: FLTQHYDAIPQ
inactive: [1] 1.19 | [2] 0.901 | [3] 1.05 | [4] 0.898 | [5] 0.948 | [6] 0.942

B32: ALDH2_Y502_E504K (peptide)
chain: YGLQAYTKVKT
inactive: [1] 1.29 | [2] 1.65 | [3] 1.03 | [4] 1.37 | [5] 0.893 | [6] 0.839

B33: ALB_Y394 (peptide)
chain: DPHECYAKVFD
inactive: [1] 1.18 | [2] 1.55 | [3] 1.25 | [4] 0.846 | [5] 1.04 | [6] 1.61

B34: ALK_Y1282_YF (peptide)
chain: IFRASYFRKGG
inactive: [1] 0.312 | [2] 0.314 | [3] 0.363 | [4] 0.353 | [5] 0.482 | [6] 0.276

B35: ALOX12_Y295 (peptide)
chain: RGEKQYLAAPL
inactive: [1] 0.599 | [2] 0.48 | [3] 0.698 | [4] 0.532 | [5] 0.587 | [6] 1.01

B36: ALB_Y172_Y174F (peptide)
chain: ARRHPYFFAPE
inactive: [1] 0.28 | [2] 0.264 | [3] 0.286 | [4] 0.279 | [5] 0.244 | [6] 0.184

B37: AMZ2_Y26_N30D (peptide)
chain: VLVSQYEKLDA
inactive: [1] 1.03 | [2] 0.677 | [3] 0.916 | [4] 0.955 | [5] 1.04 | [6] 0.84
